# In the RNAGym collection of RNA variant scans (doi:10.7554/elife.90254):
# Read counts are not given, so values of variants with three or more changes are uncertain.
# B1: LINE1-mini (parent)
# chain: GGCAGAGCUCAACACAGCGUGGCAAAGUGGCUGUGGCUAGACUGCC
# Variants of: B1
# Assay: self-cleavage, relative activity (ratio to wild type); higher = more cleavage; in vitro, sequencing; the parent is a self-cleaving ribozyme
row,Variant,self-cleavage
1,GGCAGAACUCAUCACAGCGUGGCUUAGUGGCUGUGACUAGACUCCC [G7A A12U A24U A25U G36A G44C],0.03
2,GGCAGGGCUCAACACAGCGUUGCAAAGUUGCUGUGGCUAGAUUGCC [A6G G21U G29U C42U],0.06
3,CGCAGACCUCAACACAGCGUGGCAAAGUGGCUGUGGCUAGUCUGCC [G1C G7C A41U],0.01
4,GGCAGAGCUGCACGCAGCGUGUCAAAGUGGUUGUGGCUCGACUGCC [C10G A11C A14G G22U C31U A39C],0
5,GACAUAGCUCAACACAGCGUAGCAAAGUGUCUGCGGCUAGACUGCC [G2A G5U G21A G30U U34C],0.04
6,GGCAGACCUCAACACAGCGCGGCAAAGUGGCUGUGGCUAGUCUGUC [G7C U20C A41U C45U],0.09
7,GGCAGAGAGCAACACAGCGGGGCAAAGUGGCUGUGGCUAGACUGCC [C8A U9G U20G],0.02
8,GGCAGAGCUCAAAACAGCGUAGCAAUGUGGCUGUGGCAAGUCUGCC [C13A G21A A26U U38A A41U],0.01
9,GUCAGAGCUCAACAGAGCGUGGUAAAGUGGCUGUGUCUAGACUGCC [G2U C15G C23U G36U],0.01
10,UGCAGAGCUCAACACAGCGUGGAAAAGUGGGUGUGGGUAGACUGGC [G1U C23A C31G C37G C45G],0
11,CGAAGCGCUCAACAUAGCGUGGCAAAGUGGCUGUGGCUAGACUGCC [G1C C3A A6C C15U],0.05
12,GGCACAGCUCAACACAGCUUGGCAAAGAUGCUGUGGCUAGUCUGCC [G5C G19U U28A G29U A41U],0.06
13,GGCACAUCUCAACACAUCGUGGCAAAGUGGCUGUGGCUAGACUCCC [G5C G7U G17U G44C],0.12
14,GGCAGUGCUCAACACAGCGAGGCAAAGUGGCUGUGGCUAGACUUCC [A6U U20A G44U],0.09
15,GGCCGAGCUCAACACCGCGCGGCAAAGUGGCUGUGGCUAGACUGCC [A4C A16C U20C],0.08
16,GGCAGAGCCCAUCAUAGCGUGGCAAAGUGGCUGUGGCUAGACUGCC [U9C A12U C15U],0
17,GGCAGAUCACAACACAGCGUGGUAAAGUGGCUGUGUCUAGACUGCC [G7U U9A C23U G36U],0.1
18,GGCAGAGCUCAACACAGCGUGGUAAAGUGGCUGUAGCUAGCCUGCC [C23U G35A A41C],0.09
19,GGCAGAGAUCAACACAGCGUGGCAAAGUGGCUAUGGCAAGACUGCA [C8A G33A U38A C46A],0.23

row,Variant,self-cleavage
1,GUCAGAGCUCAAAACAGCGUGGCAGAGUGGAUGGGGCUAGACUGCA [G2U C13A A25G C31A U34G C46A],0.01
2,GGCAGAGCUCAACACAGCUUAGCAAAGUGGCUGUGGCUAUACUGCC [G19U G21A G40U],0.11
3,GGCAGAGCUCUACACAGCGUGGCAAAGUGGCAGUGUCUAGACUGCC [A11U U32A G36U],0.13
4,GGCAGACCCCAACACAGCGUGGCAAAUUGGCUGUGGCUAGACUGCC [G7C U9C G27U],0
5,GGCACAGCUCAACACAGCGUGGCAAAGUGUCUUUGUCUAUAAUGCC [G5C G30U G33U G36U G40U C42A],0.08
6,GACAGAGCUCAACACAGCGUGCCAAAGUGGCUGUGGCAAGACUGCC [G2A G22C U38A],0.58
7,GGCAGAGCUGAACAGAGCGUGGCUCAGUGGCUGUGGCUUGACUGCC [C10G C15G A24U A25C A39U],0.03
8,GGCAGAGCUCAACACAGCGUGCCCAAGUGGCUGUGGCAAGACUGCC [G22C A24C U38A],0.25
9,GGCAAAGCUGAACACAGCGUGGCAAAGGGUCUGUGGCGAGACUGCC [G5A C10G U28G G30U U38G],0.03
10,GGCAAAGCUCAACACACGGUGGCAGAGUGGCUGUGGCUAGACUACC [G5A G17C C18G A25G G44A],0.04
11,GGCGGAGCUCAACACAGCGUGGCAAAGUGGCUGUGGAUACACUGCC [A4G C37A G40C],0.21
12,GGCAGAACUCAACCCAGCGUGGCAAAGUGGCUGUGGCUACACUGCC [G7A A14C G40C],0.27
13,GGCAGAGCGCAACGCAGCGAGGCAAAGUGCCUGUGGCUAGACUGCC [U9G A14G U20A G30C],0.12
14,GGCAGAGCUCAACACUGCCUGGCAAAGUGGCUGUGGCUAGACUGCA [A16U G19C C46A],0.2
15,GGCAGAGCUCAGCACAGCGUCGCACAGUGGGUGUGGCUAGACUGCA [A12G G21C A25C C31G C46A],0.02
16,GGCAGAGCUCAAGACAGCGUGGCAAUGUGGCUGAGGCUAGAUUUCU [C13G A26U U34A C42U G44U C46U],0.04
17,GGCCGAGCUCAACAAAGCGUGGCAAAGAGGCUGUGGCUAGACUGCC [A4C C15A U28A],0.09
18,GGCAGAGCUAAACACAGUGUGGCAAAGUGGCUGUGGCUAGACUGAC [C10A C18U C45A],0.02
19,GGCACAGCUCGUCACAUCGUGGCAAAGUGGCUGUGGCUCGACUGAC [G5C A11G A12U G17U A39C C45A],0.01

row,Variant,self-cleavage
1,GGCAGAGCUCAACACAGCGUGUCAAAGUGGCUGUGGCAAUUGUGCC [G22U U38A G40U A41U C42G],0.17
2,GGCAGAGCUCAACAUAGCGUGGCAAAGUCGCUGAGGCUAGACUGCC [C15U G29C U34A],0.04
3,GGGAAAGCACAACACAGCGUGGCAAAAUGGCUGUGACUGGUCUGCC [C3G G5A U9A G27A G36A A39G A41U],0.29
4,GGCAGAGCUCAACAAAGCGUGGCGAAGUGGCCGUGGCCAGACUGCG [C15A A24G U32C U38C C46G],0.06
5,GGCAGAGCUCAACACAGCGUGGCAAAAUGGCUGUGGAUAGACUGCU [G27A C37A C46U],0.08
6,GGCAGAGCUCAACAAAGCGUUGCAAAGUGGCUGUGGCUACAUUGCC [C15A G21U G40C C42U],0.06
7,AGCAGAGCUUAACACAGCGUGCCAAAGGGGCUUUAGCUAGAGUGCC [G1A C10U G22C U28G G33U G35A C42G],0.04
8,GGCAGCGCUCAACACAGCGUUGCUAAGUGGCUGUGGCUAGCCUGCC [A6C G21U A24U A41C],0.07
9,GGCCGAGCUCAACAGAGCGUGGCAAAGCGGGUGUGGCUGGACUGCC [A4C C15G U28C C31G A39G],0.13
10,GGCAUAGCUGAACACAGCGUGUCAAUGUGGCUGUGGCUAGACUGCC [G5U C10G G22U A26U],0.02
11,CGCAGAGCUCAACACAGCGUGGCAAAGUGGCUGUGGCUAGAGUGCA [G1C C42G C46A],0
12,GGCAGAGCUCAACACAUCGUGGGAAAGUGCCUGUGGCUAGACUGCC [G17U C23G G30C],0.07
13,GCCAGAGCCCAACACAGCGUGGCAAAGUAACUGAGGCUAGACUGCC [G2C U9C G29A G30A U34A],0.01
14,GGCAGAGCUCGACACAGCGUGUCAACGUGGCUGUGGCUAGACUGCC [A11G G22U A26C],0.03
15,GACAGAGCUCAACACAACAUGGCAAAGUGGCUGUGGCUAGACUGCC [G2A G17A G19A],0.25
16,GGCAUAGCUCAACAAAGCGAGGCAAAGUGGCUGUGACUAGACUGCC [G5U C15A U20A G36A],0.05
17,GGCAGAACUCAAUAAAGCGUGGCAAAGUGGCCGUGGCUAGACUGUC [G7A C13U C15A U32C C45U],0.04
18,GGCAGAGCUCAACACAGCGUGGCAAAGUGGAUGUGGCUAGACUGAA [C31A C45A C46A],0.02
